# In publication PMC4336329 (PLoS ONE, 2015):
# About 2,200 (0.71%) of roughly 310,000 compounds showed an effect of 50% or more. Effects have a minus sign here. This is one part of the list.
# Biological target: human ether-à-go-go-related gene (hERG) potassium channel (human, UniProt Q12809)
# Assay: primary screen, population patch clamp on CHO cells stably expressing hERG
# Chain of human ether-à-go-go-related gene (hERG) potassium channel (Q12809 whole entry, looked up): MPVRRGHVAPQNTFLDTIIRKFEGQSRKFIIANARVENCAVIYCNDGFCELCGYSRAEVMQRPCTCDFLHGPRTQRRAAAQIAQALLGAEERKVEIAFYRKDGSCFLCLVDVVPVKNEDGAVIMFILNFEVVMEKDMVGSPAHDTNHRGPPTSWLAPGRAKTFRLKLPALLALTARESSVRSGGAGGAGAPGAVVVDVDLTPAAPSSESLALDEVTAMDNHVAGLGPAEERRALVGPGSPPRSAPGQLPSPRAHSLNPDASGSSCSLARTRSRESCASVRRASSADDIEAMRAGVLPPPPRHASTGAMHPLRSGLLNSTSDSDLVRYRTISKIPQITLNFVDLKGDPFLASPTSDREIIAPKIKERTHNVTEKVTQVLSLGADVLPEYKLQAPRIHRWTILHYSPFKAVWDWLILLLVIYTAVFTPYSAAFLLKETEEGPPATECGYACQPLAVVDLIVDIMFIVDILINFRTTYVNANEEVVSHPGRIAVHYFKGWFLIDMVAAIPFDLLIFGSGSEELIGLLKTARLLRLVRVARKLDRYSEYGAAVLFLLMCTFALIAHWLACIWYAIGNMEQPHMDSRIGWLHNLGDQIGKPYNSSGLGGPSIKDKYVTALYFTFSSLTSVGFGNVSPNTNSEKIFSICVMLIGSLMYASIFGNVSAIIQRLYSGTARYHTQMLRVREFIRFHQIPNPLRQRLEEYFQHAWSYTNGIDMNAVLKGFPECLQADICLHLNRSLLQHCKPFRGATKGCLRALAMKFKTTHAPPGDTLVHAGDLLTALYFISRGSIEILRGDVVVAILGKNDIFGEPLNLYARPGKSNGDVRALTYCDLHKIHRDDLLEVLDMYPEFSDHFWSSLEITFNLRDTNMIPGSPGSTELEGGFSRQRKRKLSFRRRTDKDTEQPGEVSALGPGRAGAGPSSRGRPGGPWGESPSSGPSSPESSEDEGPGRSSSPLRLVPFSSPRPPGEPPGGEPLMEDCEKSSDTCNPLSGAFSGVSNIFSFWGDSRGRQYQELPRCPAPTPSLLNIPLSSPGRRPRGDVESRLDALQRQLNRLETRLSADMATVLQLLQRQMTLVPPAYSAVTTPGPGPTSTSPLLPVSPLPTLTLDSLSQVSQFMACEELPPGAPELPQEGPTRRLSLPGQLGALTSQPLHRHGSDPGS
row,Structure (SMILES),"hERG current change (%, negative = inhibition) at 1uM [%]"
1,CCOC(=O)N1CCN(C(=O)c2cn(CC)c3cc(N4CCN(C)CC4)c(F)cc3c2=O)CC1.Cl,9.26
2,Nc1ccc(S(=O)(=O)NC2(C(F)(F)F)NC(=O)N(c3ccccc3Cl)C2=O)cc1 (stereo not shown),0.243
3,O=S(=O)(c1cccc(S(=O)(=O)N2CCCC2)c1)N1CCCCC1,3.43
4,O=S1(=O)CC2N=C(N(Cc3ccc(F)cc3Cl)c3ccccc3F)SC2C1 (stereo not shown),5.72
5,O=C(CNCCc1ccc(F)cc1)Nc1cc(F)ccc1F.O=C(O)C(=O)O,3.26
6,Cc1ccc2c(c1)C(=NC1CCCCC1)c1cc3ccccc3nc1-2,12.1
7,Cc1ccccc1C(=O)Nc1cccc(-c2ccc(N3CCOCC3)nn2)c1,6.31
8,CN(C)CCNC(=O)Cn1ccc2cc(S(=O)(=O)N3CCCCC3)ccc21,26.4
9,O=C1C(C=NCCCn2ccnc2)=C(O)c2ccccc21,-1.07
10,O=C(CCc1nnc(C2CCCCC2)o1)N1CCCCC1CCn1cccn1 (stereo not shown),3.26
11,COc1ccc(S(=O)(=O)Nc2ccccc2OC)cc1C,22
12,CCN(CCS(=O)(=O)c1ccc(Cl)cc1)C(=O)Nc1ccccc1,11
13,O=C(Nc1ccc(Cl)cc1)c1csc(-c2ccccc2)n1,7.08
14,Cc1cc(NC(=O)CSCC(=O)N(c2cccc(Cl)c2)C(C(=O)NC2CCCCC2)c2ccc(O)c(O)c2)no1 (stereo not shown),10.7
15,COc1cc2c(cc1OC)C(C(=O)Nc1ccccc1N1CCN(C)CC1)C1c3ccccc3CCN1C2=O (stereo not shown),4.41
16,Cc1c(N(C(=O)CNC(=O)c2ccccc2)C2(C(=O)NC3CCCCC3)CCCCC2)c(=O)n(-c2ccccc2)n1C,14.6
17,COc1ccc(NC(=O)c2cc(S(=O)(=O)N3CCCCC3)c[nH]2)c(OC)c1,8.48
18,COc1ccc(-n2c(N)c(C#N)c3ccc([N+](=O)[O-])cc3c2=O)cc1,5.85
19,CCCc1c(C)c2ccccc2[nH]c1=O,7.27
20,CC(=O)/C=C(/C)NC(Cc1c[nH]c2ccccc12)C(=O)O (stereo not shown) [14727836],0.188
21,NCCCC[C@H]1CNC(=O)C(=O)N1CCc1cc(C(F)(F)F)cc(C(F)(F)F)c1,11.4
22,Cc1ccc(-c2nc(N)sc2CC(=O)OCC(=O)NCC2CCCO2)cc1 (stereo not shown),7.16

row,Structure (SMILES),"hERG current change (%, negative = inhibition) at 1uM [%]"
1,N#C/C(=C\c1ccccc1Cl)C(=O)Nc1ccccn1,15
2,CCN(CC(=O)Nc1c(F)cccc1F)C(=O)CCCOc1ccc(OC)cc1,1.6
3,CCC(=O)Nc1nnc(-c2ccccn2)o1,0.0215
4,CCN(CC)C(=S)SCC(=O)Nc1nc(-c2ccccc2)c(-c2ccccc2)o1,11
5,C[C@]12CC[C@H]3[C@@H](CCC4=CC(=O)CC[C@@]43C)[C@@H]1CC[C@@H]2C(=O)CO,6.52
6,O=P(O)(CCCP(=O)(O)CCc1ccccc1)CCc1ccccc1,3.04
7,CCC(C)NC(=O)Nc1ccc(Br)cc1Cl (stereo not shown),4.69
8,C[C@@H](NC(=O)[C@@H]1Cc2ccccc2CN1)C(=O)Nc1ccc2c(c1)OCCO2,5.96
9,Cc1ccc(-n2ncc3c(NCCCN4CCCC4=O)ncnc32)c(C)c1,11.7
10,Nc1nc(OCC(F)(F)F)cc(Oc2ccccc2F)n1,-3.6
11,COc1cccc(-c2noc(CCC(=O)NC3CCCC3)n2)c1,9.98
12,Cc1cc(C(=O)N/N=C/c2ccc(-c3ccc([N+](=O)[O-])cc3Cl)o2)n[nH]1,13.8
13,CC1Cc2nc(SCC(=O)N3CCCc4ccccc43)n(C)c(=O)c2S1 (stereo not shown),1.64
14,O=C1C=CC2C(c3ccc4c(c3)OCO4)CC1N2Cc1ccccc1 (stereo not shown),10.2
15,Oc1ccc(C[C@@H]2CNCCN2CCc2cccc3ccccc23)cc1,-31
16,O=C(O)C1CCCCC1C(=O)NCCCCc1ccccc1 (stereo not shown),-6.23
17,Cc1ccc(CNC(=O)CSc2ncccn2)cc1,7.13
18,O=C(NCCNCCO)C1(C(F)(F)F)C/C(=C\CCO)CCCO1 (stereo not shown),1.05
19,CCOC(=O)C1=CCN(Cc2ccccc2)CC1.Cl,14.6
20,COc1ccc(NC(=O)C2CC2)cc1NS(=O)(=O)c1ccc(F)cc1,9.01
21,CCC1=[N+](CC(=O)c2ccc(Br)cc2)CCn2c(C)ccc21.[Br-],2.38
